Results reported in PubChem BioAssay AID1030 (National Center for Advancing Translational Sciences (NCATS), 2008).
Several values for one entry are separate records, joined by “and”; a condition that tells them apart may be missing. Identical values can stand only once. Among all 220,000 compounds or so, about 16,000 (7.3%) were called active. This list was built around the results that the source calls inconclusive (neither active nor inactive); the mix of calls is not that of the screen. The call rests on the fitted dose curve; in most records, active means well fitted inhibition curve with a large enough effect (not every such curve was filed as active); inconclusive means small, poorly fitted or top-dose-only effect, or another doubt; inactive means no such curve, though single readings can be large or run the other way. A potency beside an inconclusive call is a rough fit, not a confirmed value.
Potency means the concentration at half of the fitted maximal effect; tags describe the fitted curve by direction and shape.

These molecules were tested against Aldehyde dehydrogenase 1A1 (Homo sapiens) (UniProt P00352) (assay: qHTS Assay for Inhibitors of Aldehyde Dehydrogenase 1 (ALDH1A1)). Settings: Purified ALDH1A1, NADH fluorescence, propionaldehyde substrate; series mostly up to 75.3 µM.
Sequence of UniProt P00352 (P00352 whole entry, looked up): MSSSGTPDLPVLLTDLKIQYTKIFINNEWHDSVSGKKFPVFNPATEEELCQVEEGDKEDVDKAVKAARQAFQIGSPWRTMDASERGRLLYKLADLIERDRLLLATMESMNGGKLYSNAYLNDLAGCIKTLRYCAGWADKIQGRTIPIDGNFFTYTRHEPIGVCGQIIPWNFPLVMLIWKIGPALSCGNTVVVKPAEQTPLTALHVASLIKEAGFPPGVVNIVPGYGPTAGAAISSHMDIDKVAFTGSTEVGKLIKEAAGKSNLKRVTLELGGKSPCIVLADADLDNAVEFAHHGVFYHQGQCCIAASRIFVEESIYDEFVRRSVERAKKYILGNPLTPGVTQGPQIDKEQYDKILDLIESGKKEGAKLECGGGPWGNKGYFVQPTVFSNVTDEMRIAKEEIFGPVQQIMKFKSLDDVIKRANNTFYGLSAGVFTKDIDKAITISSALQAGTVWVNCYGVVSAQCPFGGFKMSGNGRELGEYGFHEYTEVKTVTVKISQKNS
CCN1CCN(C(=O)COc2cc(=O)n(CC)c3ccccc23)CC1 was tested, and the Potency was inconclusive: 39.8 µM [inhibitor, single point]. For OC1(c2cccnc2)CC2CCC(C1)N2Cc1nnnn1Cc1ccccc1 (stereo not drawn), the Potency was inconclusive: 22.4 µM [inhibitor, single point]. For O=C1NC(=O)N(Cc2ccccc2Cl)C(=O)/C1=C/c1cccs1, the Potency was inconclusive: 39.8 µM [inhibitor, single point]. Cc1cccc(C)c1O was tested, and the Potency was inconclusive: 39.8 µM [inhibitor, single point]. With CCn1c(C(=O)N2CCC(C(=O)N3CCC4(CC3)OCCO4)CC2)cc2sccc21 the Potency was inconclusive: 14.1 µM [inhibitor, partial curve]. CC(n1cc(C[C@H](N)C(=O)O)c2ccccc21)n1cc(C[C@H](N)C(=O)O)c2ccccc21 was tested, and the Potency was inconclusive: 39.8 µM [inhibitor, single point]. CSc1ccc(C(=O)C2CCCN(Cc3cc4ccccc4[nH]3)C2)cc1 (stereo not drawn) was tested, and the Potency was “inactive”. In the case of Cc1cc(/C=C2\C(=O)NC(=O)N(c3ccc(F)cc3)C2=O)c(C)n1-c1cccc(C(=O)O)c1, the Potency is reported as inconclusive: 39.8 µM [inhibitor, single point]. CC1=C(/C=C/c2ccccc2)CCN(C)C1 was tested, and the Potency was active: 11.2 µM. CN1C(=O)N(C)C(=O)C(CCc2ccncc2)(CCc2ccncc2)C1=O was tested, and the Potency was inconclusive: 39.8 µM [inhibitor, single point]. For CC(=O)CCC(C)=O, the Potency was inconclusive: 22.4 µM [inhibitor, partial curve]. With O=C1/C(=C/c2cc3c(cc2Cl)OCO3)N2CCC1CC2 the Potency was active: 12.6 µM. With COc1cc2c(cc1O)-c1c(O)c(OC)cc3c1[C@H](C2)N(C)CC3 the Potency was inconclusive: 35.5 µM [inhibitor, single point]. CCOC(=O)C1=C(N)Oc2cc(C)oc(=O)c2C12C(=O)N1c3c(cccc32)C(C)=CC1(C)C (stereo not drawn) was tested, and the Potency was inconclusive: 0.316 µM [inhibitor, full curve]. For CCCCCn1c(SCCCC)nc2c1c(=O)[nH]c(=O)n2C, the Potency was active: 20 µM. For CN1CCc2cc3c(cc2C1O)OCO3 (stereo not drawn), the Potency was inconclusive: 35.5 µM [inhibitor, partial curve]. In the case of CN1C(=O)/C(=C/c2cccn2-c2ccc3ccccc3c2)C(=O)NC1=S, the Potency is reported as inconclusive: 31.6 µM [inhibitor, single point]. In the case of CCCCc1nc2ccccc2c(=O)n1-c1ccccc1O, the Potency is reported as inconclusive: 39.8 µM [inhibitor, single point]. With CCOC(=O)C1=CC(=C2C(=O)N(CC)C(=S)N(CC)C2=O)c2ccccc2O1 the Potency was inconclusive: 20 µM [inhibitor, partial curve]. O=C(c1csnn1)N1CCC[C@@]2(CCN(Cc3ccncc3)C2)C1 was tested, and the Potency was inconclusive: 39.8 µM [inhibitor, single point]. With Cc1cc(OCc2nn[nH]n2)c2c3c(c(=O)oc2c1)CCCC3 the Potency was inconclusive: 31.6 µM [inhibitor, partial curve]. CCCCCCCC(=O)Cl was tested, and the Potency was inconclusive: 39.8 µM [inhibitor, single point]. With COc1ccccc1/C=C1/C(=N/O)C2CCN1CC2 the Potency was active: 15.8 µM. O=C(Cn1c2c(c(-c3ccccc3Cl)cc1=O)CCC2)N1CCC2(CC1)OCCO2 was tested, and the Potency was inconclusive: 20 µM [inhibitor, partial curve]. For Cn1cc2c([N+](=O)[O-])cc([N+](=O)[O-])cc2n1, the Potency was inconclusive: 37.7 µM [inhibitor, single point]. With O=c1c(O)c(-c2ccc(O)c(O)c2)oc2c(O)c(O)cc(O)c12 the Potency was active: 35.5 µM. CC(=O)Nc1ccccc1C(=O)OCc1ccccc1F was tested, and the Potency was inconclusive: 44.7 µM [inhibitor, single point]. COc1ccc(N)cc1 was tested, and the Potency was inconclusive: 39.8 µM [inhibitor, single point]. With COC(C)(C)C the Potency was active: 17.8 µM. For CC(c1ccccc1F)n1cc(C(=O)Nc2ccc3nc[nH]c3c2)nn1 (stereo not drawn), the Potency was inconclusive: 28.2 µM [inhibitor, single point]. For COc1ccc2c(c1)CCC1[C@@H]2CCC2(C)[C@@H](NCCCCCCN3C(=O)C=CC3=O)CC[C@@H]12 (stereo partly drawn), the Potency was active: 0.112 µM. With ClC(Cl)(Cl)Cl the Potency was “inactive”. For CCC(=NCCCN(CC)CC)c1c(O)n(C2CCCCC2)c(=O)[nH]c1=O, the Potency was inconclusive: 44.7 µM [inhibitor, single point]. For C#C[C@]1(O)CC[C@H]2[C@@H]3CCC4=CC(=O)CCC4(C)[C@H]3CCC21C (stereo partly drawn), the Potency was “inactive”. For Nc1ccccc1C(=O)OCCOc1ccccc1, the Potency was inconclusive: 39.8 µM [inhibitor, single point]. In the case of NCC(=O)c1ccccc1, the Potency is reported as inconclusive: 35.5 µM [inhibitor, single point]. In the case of O=[As](O)(O)c1ccc(NCc2ccccc2)cc1, the Potency is reported as inconclusive: 6.31 µM [inhibitor, single point]. With COc1ccc(C(=O)C2CCCN(Cc3ccsc3)C2)cc1OC (stereo not drawn) the Potency was inconclusive: 20 µM [inhibitor, partial curve]. With O=C1C=Cc2ccccc2C1=O the Potency was active: 14.1 µM. For COc1ccc(N2CC(C(=O)NCc3ccco3)CC2=O)cc1 (stereo not drawn), the Potency was active: 25.1 µM. c1ccc(-c2ccc(-c3n(-c4ccccn4)c4ccccc4[n+]3-c3ccccn3)cc2)cc1 was tested, and the Potency was inconclusive: 35.5 µM [inhibitor, partial curve]. For COc1ccc2[nH]cc(C3=CCNCC3)c2c1, the Potency was inconclusive: 39.8 µM [inhibitor, single point] and inconclusive: 25.1 µM [inhibitor, single point]. In the case of OCC(CBr)(CBr)CBr, the Potency is reported as active: 17.8 µM. With C(=C/c1ccccc1)/CN1CCN(CCOC(c2ccccc2)c2ccccc2)CC1 the Potency was “inactive”. With Cc1nn(Cc2ccccc2Cl)c(Cl)c1C(=O)OCC(=O)NC(=O)NC1CCCCC1 the Potency was “inactive”. For CC(C)c1ccc(N2C(=O)NC(=O)/C(=C\c3cnc(-c4ccccc4)nc3)C2=O)cc1, the Potency was active: 7.08 µM. In the case of COc1ccc(C=C2C(=O)N(C)C(=O)N(C)C2=O)cc1CSc1ccccn1, the Potency is reported as active: 3.16 µM. With COc1cc2c(cc1OC)[C@@H]1C(=O)c3ccc(OC)c(CC=C(C)C)c3OC1CO2 (stereo partly drawn) the Potency was inconclusive: 39.8 µM [inhibitor, single point]. In the case of COc1ccc(C(=O)O)cc1OC, the Potency is reported as “inactive”. C/C(=N/OC(=O)N(C)C)c1ncc(C(F)(F)F)cc1N1CCOCC1 was tested, and the Potency was inconclusive: 11.2 µM [inhibitor, partial curve]. With CCOC(=O)c1ncc2[nH]c3ccc(OCc4ccccc4)cc3c2c1COC the Potency was inconclusive: 35.5 µM [inhibitor, single point]. C=CCn1c(O)c(C(CC)=Nc2cc(OC)ccc2OC)c(=O)[nH]c1=O was tested, and the Potency was inconclusive: 39.8 µM [inhibitor, single point]. CN1CCN(C(=S)c2ccc([N+](=O)[O-])cc2)CC1 was tested, and the Potency was inconclusive: 25.1 µM [inhibitor, single point]. For CC[n+]1c(-c2ccccc2)c2cc(N)ccc2c2ccc(N)cc21, the Potency was “inactive”. With N[C@H](CP(=O)(O)O)C(=O)O the Potency was “inactive”. COc1cc(OC)c(OC)cc1/C=C1\C(=O)NC(=O)N(Cc2ccccc2)C1=O was tested, and the Potency was inconclusive: 39.8 µM [inhibitor, single point]. With CC(C)c1ccc(-n2c(O)c(/C=N/NC(=O)c3ccncc3)c(=O)[nH]c2=O)cc1 the Potency was inconclusive: 25.1 µM [inhibitor, single point]. For CCS(=O)(=O)N1N=C(c2cccc(NS(C)(=O)=O)c2)CC1c1ccccc1 (stereo not drawn), the Potency was active: 12.6 µM. With Cc1ccc(Cn2cc(C=O)c(-c3ccc(C)cc3)n2)cc1 the Potency was “inactive”. CN1C(=O)C(=Cc2ccc(SC3CCCCC3)o2)C(=O)N(C)C1=O was tested, and the Potency was active: 14.1 µM. CN(C)c1nc(-c2ccccc2)[n+](C)s1 was tested, and the Potency was inconclusive: 22.4 µM [inhibitor, single point]. For O=C(c1ccccc1)c1cn(CC(=O)N2CCCc3ccccc32)c2ccccc12, the Potency was inconclusive: 39.8 µM [inhibitor, single point]. In the case of O=C(Cn1cc(C(=O)c2ccccc2F)c2ccccc21)NCc1ccco1, the Potency is reported as inconclusive: 1.12 µM [inhibitor, partial curve]. CSc1ccc(CN2CCN(Cc3ccccc3Cl)CC2)cc1 was tested, and the Potency was “inactive”. With C=CCn1c(O)c(C(C)=NCc2cc(OC)cc(OC)c2)c(=O)[nH]c1=O the Potency was inconclusive: 15.8 µM [inhibitor, partial curve]. With Cc1cc(O)c2c(c1)C(=O)c1cc(O)cc(O)c1C2=O the Potency was active: 14.1 µM and active: 12.6 µM and active: 22.4 µM. In the case of CC(=O)NC1CC2CCCC(C1)N2 (stereo not drawn), the Potency is reported as inconclusive: 18.9 µM [inhibitor, partial curve, poor fit]. O=C(Oc1c(Br)cc(Br)c2cccnc12)N1CCCCC1 was tested, and the Potency was inconclusive: 12.6 µM [inhibitor, partial curve, poor fit]. With COC(=O)C1(C)C=C2C(=C(C)C(=O)C2C)CN1 (stereo not drawn) the Potency was inconclusive: 29.9 µM [inhibitor, single point]. In the case of CC[C@@]1(O)C(=O)OCc2c1cc1n(c2=O)Cc2cc3c(O)cccc3nc2-1, the Potency is reported as inconclusive: 20 µM [inhibitor, partial curve]. CC(=O)c1cn(Cc2ccc(C#N)cc2)c2ccccc12 was tested, and the Potency was “inactive”. CCOC(=O)CC(NC(=O)C(Cc1ccc(N(CCCl)CCCl)cc1)NC(C)=O)C(=O)OCC (stereo not drawn) was tested, and the Potency was active: 25.1 µM. With CCN(CC)CCOC(=O)C(O)(c1ccccc1)c1ccccc1 the Potency was “inactive”.
